The supplement of paper PMC11417369
The other results are listed elsewhere or left out.

Tested on: PF3D7_0420300 AP2 domain 1 (GST-tagged)
Assay: gcPBM binding intensity (ln(normalized median fluorescence intensity)); higher = stronger DNA binding
Procedure, shortened: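 Using an Agilent 4 × 180k array, primer-extended double-stranded 36-bp intergenic genomic probes and negative controls were exposed for 1 h to GST-fused P. falciparum DNA-binding domains expressed in E. coli. Binding was carried out in 1× PBS with 1% milk, 0.2 mg/ml BSA, 0.5% salmon testes DNA and 0.03% Triton X-100, and protein was detected with Alexa488 anti-GST antibody and a 488 nm scan. Binding intensity is the highest Masliner-normalised natural-log median intensity across replicate spots of either probe orientation.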

Sequence | gcPBM binding intensity (ln)
AATTGGGAACTGTAATGTACATATATTGAAAGTATA [XGTACX_site7081] | 9.24
TATTTATTTGTACATATACACACTTAAATATGTTTA [CACACA_site3902] | 9.41
TTATATTTCTTGAAGGGTACATACCATTATTTTTAA [XGTACX_site1159] | 9.03
ATATATTTATATATTACACACAATATTGGAGACATA [CACACA_site931] | 9.62
ATACATATATTAGGATGTACGTTTATTTTAGTTATT [XGTACX_site7169] | 9.47
AGAAAACTCGCTTTTCTAAATCTCAAAAAAAAAAAA [XGTACX_negctrl_site94] | 8.73
ATATACATATCATGTAGTACAATTTTTTTACTTTTT [XGTACX_site7988] | 9.21
TAAAAAAATAAAATTACACACATATATAGATATATA [CACACA_site7273] | 9.39
CACTTTTTTTAAATGTGTACGTATATGAAAATATCA [XGTACX_site4854] | 8.94
TAAACAAAAAGGAAGAGTACTTGTAAAATTTGTAAA [XGTACX_site3003] | 9.26
ATATATATAAAAGAAACAACATTTATTCAAAAGGTA [CACACA_negctrl_site749] | 9.46
TTATTCTTTTAATATACACACTTTGTCTTTTCGCGC [CACACA_site5525] | 9.37
ATATTATCATTTTTTTTAATGGAAAAAAAAAAAAAA [CACACA_negctrl_site1298] | 8.65
ATATAATTCAAATACAGTACATATACAATATATACA [XGTACX_site1191] | 9.3
TACTTTTATAAAAATTTTATCAAATTCTATATATGT [TGCATGCA_negctrl_site308] | 9.05
TTTTAAATTTAGTGTAGTACACTTTTTTCAAATATA [XGTACX_site4659] | 9.05
TATTTTTCTTTTTAAAAATATATCACATGAACATTA [XGTACX_negctrl_site183] | 8.88
AATAACAAAATAGGCACACGCACATATATATATATA [CACACA_site1497] | 9.57
ATTCAAAAGATGTATACACACATGTGGATAATATAA [CACACA_site2443] | 9.5
GCACCCTGTATGAATGCACACATTCATAGAATTGCT [CACACA_site5475] | 9.38
TACATATTTATATACACACACACACGGATATTTATA [CACACA_site7239] | 10.3
GAATTCCTTTGTGTATGTACATAATGATATTATTTT [XGTACX_site7369] | 9.48

Sequence | gcPBM binding intensity (ln)
TGATCAAATAAGTTTGCATGTCAACAATGCATATAT [TGCATGCA_site1025] | 9.11
CCCCTTGTGGATTCTACACACAAAAAGTCGTCAAAA [CACACA_site821] | 9.67
TAATTTTTTAAACACACACACATATATATATATATA [CACACA_site4230] | 9.66
CATATCTCAATTTATGCATGCAGGATTTTTCTAATA [TGCATGCA_site516] | 9.1
TTTTTTTTTTTTTGGTGTACATTTATAAAAAAAAAA [XGTACX_site8368] | 8.6
ACACAAAAAAAAAAAAAAAAAAAAAAAAAAAAGGAA [CACACA_negctrl_site1162] | 9.32
AATATGTACAGACATACACACATATATATATATATA [CACACA_site1222] | 9.46
ACATATAAGATTATGTGTCCACAAAAAAATAAAACA [XGTACX_site2867] | 9.18
TTTTTAATAACACTTTTGAAAAATAAAATAAAATAA [CACACA_negctrl_site821] | 8.8
TTTTATGTTCTTAATGCACACTTATAAGTATCTTAT [CACACA_site4895] | 9.41
TTTTTTTATTATTCTTATATAAAAATTTTTTTTAAT [CACACA_negctrl_site159] | 8.85
ATAGTACAACAGGTTCTTGACAAACAATATGAATGT [GTGCAC_negctrl_site442] | 9.44
TTTATATAATTTTTTTGTACATATATATGAATACAT [XGTACX_site2316] | 9.19
TAATTTTTTTTTTTTTTTCATTCTTTTCCTTTGATT [CACACA_negctrl_site1365] | 9.16
TTTTTTTTTTTTGGTAGTACATAATATTAATATAAT [XGTACX_site4422] | 9.2
TATATTTTCCTGCAAACACACATATAAATGGGTAGA [CACACA_site4451] | 9.24
ATATATATATATATGGTGCATGAAAATTTACTTTGA | 9.15
ATATACTCATTTAATACACACAAAGAGAAAATTAAT [CACACA_site1923] | 9.64
GATATTTGTTCATATACACACTTTTGATAAAATATG [CACACA_site4807] | 9.56
TTTTTGTTATTATGTGTGCACATATATATATATATA | 9.66
TATGTTATTATTTGTACACACACATATATATCCTTG [CACACA_site5910] | 10
AACAAATATCCCAAAAGTACACATATAAAAAAAAAA [XGTACX_site4126] | 9.52

Sequence | gcPBM binding intensity (ln)
ATTATCTTATGTTATTTATTTGTCCCACATTTGTTA [TGCATGCA_negctrl_site402] | 9.58
CATACACCCAGACACACACACATATATATATATATA [CACACA_site634] | 9.94
TACTAACATAAAGACACACACCACATAAAATAAATA [CACACA_site7663] | 9.77
GGAAGAAAACTTAGGTGTACATATAAAACGATATAA [XGTACX_site3118] | 9.38
TATGAACACAGACACACACACAAAAAAAAAAAAAAA [CACACA_site7037] | 9.27
ATAGTATACAGACACACACACACACCGATATATATA [CACACA_site8511] | 10.3
CTTATTTTGTTATAAGTGCATTTTTTAAAATTTCTT | 9.12
TATACCTTTGCGTGTGCATGCGCTTATATATATTTT [TGCATGCA_site152] | 9.52
TTTATGTGTATGTTTACACACATAAAAAAATATATG [CACACA_site3039] | 9.51
ACAATTCCCGTATGATGTACTTTTTTCCACTTTTTC [XGTACX_site1811] | 9.64
TATTTTTAATATTTTGCATGCAGTATTTTATAAAAT [TGCATGCA_site250] | 9.14
CACACAAAGGAATATACACACATATTTATATTTATA [CACACA_site7841] | 9.66
AATAAATAAATAAATTAATAAATTAATAAATTAATA [GTGCAC_negctrl_site37] | 8.83
GTATATAATTTTTTATGTACTAAATTATATGTTTTT [XGTACX_site4907] | 9.26
ATCTATTTGTAAAGGGTGCGCATATCAATAAAAAAT [GTGCAC_site9503] | 9.45
CAAAATTTTTATAAGTCACACATTATCTAAGCTTAT [CACACA_site5747] | 9.1
TACCTAATATGTTATACACACATTAGAAGTACATAT [CACACA_site5375] | 9.48
ATAAAAAAAAAAAAAAAATATATATATATATATATA [XGTACX_negctrl_site424] | 8.78
TATATACTTTTTAATCACACTTCTTTAAAAAAAGTA [CACACA_negctrl_site1380] | 8.85
TGTAATAACGTTATAAAAAGTATAAAAAAAAAAAAA [CACACA_negctrl_site943] | 9.18
TTATTTTTATTATTTTGTATATATATTTATAGAAAA [XGTACX_negctrl_site465] | 8.95
TTTTAGGTCTGAATGTGTACTAAATAATATAAGTAT [XGTACX_site6554] | 9.14

Sequence | gcPBM binding intensity (ln)
TATATATATAACAACACACACAGATCATAAAACTGC [CACACA_site2161] | 10
AAAAAAAAAAAAAACACACACAAATTTAATATATAT [CACACA_site1695] | 9.91
TATATTTATTTTAACACACACATATATATATTATAT [CACACA_site4729] | 9.65
TCCCAAGGAGTAGGCACACATAAAATATTATACATA [CACACA_site717] | 9.19
AAAAAAAAAAAAAAAACACACACAAATTTAATATAT [CACACA_site8492] | 9.74
TACACCAAAAAAAAACGTACAAAATCCCACCCAGAC [XGTACX_site4622] | 10.6
AAAATTAAAGTAAGGACACACATATATAATACATAT [CACACA_site823] | 9.8
TACAACATATTCAAATGTACAAATATAGGAATGAAA [XGTACX_site2730] | 9.4
AACATAAAATGGATATGTACATAAAAATATATACTC [XGTACX_site7775] | 9.49
AGCGTATTATACTGACGTACATTTTATGTAACTCCA [XGTACX_site2715] | 9.1
CGTTAGAGGGCTTTATCACACATGAAAAAAAAAAAA [CACACA_site5155] | 8.84
TTATGTATTCATAACACATGCAAATAGGATCATATA [TGCATGCA_site731] | 9.26
CACACGCACAGACACACACACACATATAAATATGTA [CACACA_site6300] | 10.1
ATATGATTTCACAAGACACACACATACAAATTTATA [CACACA_site9296] | 9.74
TAAAGTTTTTTTTTAACACACACATAATAAAATAAA [CACACA_site8042] | 9.51
TAAAAAAATAAAAAAAAAAAATTATAAAATTATATA [GTGCAC_negctrl_site302] | 8.97
AAATATATTATAAATTGTACGTTTATATATATTATT [XGTACX_site5110] | 9.35
GACACATATAAATATTAACACACATAATGAATTATA [CACACA_site8881] | 9.51
ACATTATGCCATAAATGTACACATACATATACACAG [XGTACX_site1330] | 9.41
TAACTAAGGAATAATACACACAGAAATATATATTTA [CACACA_site344] | 9.75
GATGATGTTACTTAAGTGCATATAAATTATATTTTA [GTGCAC_site9940] | 9.14
TAGTATCAATCTTATACATGCATAAAATAATTATAA [TGCATGCA_site1052] | 9.05
